Assay results as given in PubChem BioAssay AID588342 (National Center for Advancing Translational Sciences (NCATS), 2011).
Among all 360,000 compounds or so, about 25,000 (6.9%) were called active. The inconclusive results got no clear call from the source; some entries with a clear call stand among them for comparison. The call rests on the fitted dose curve; in most records, active means well fitted inhibition curve with a large enough effect; inconclusive means small, poorly fitted or top-dose-only effect; inactive means flat fitted curve, though single readings scatter. Potencies beside an inconclusive call are fits to weak or partial responses and may not hold up.

target: Luciferin 4-monooxygenase (Photinus pyralis) (UniProt P08659); assay: qHTS profiling assay for firefly luciferase inhibitor/activator using purifed enzyme and Km concentrations of substrates (counterscreen for miR-21 project); settings: purified FLuc, luminescence inhibition; series mostly up to 57.5 µM; activity change, negative = inhibition: at the top concentration; further: nearly all actives have a fitted effect of over 55% in size;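 on activity change, negative = inhibition: plate controls were vehicle for no effect and reference inhibitor for full effect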
Chain of UniProt P08659 (P08659 whole entry, looked up): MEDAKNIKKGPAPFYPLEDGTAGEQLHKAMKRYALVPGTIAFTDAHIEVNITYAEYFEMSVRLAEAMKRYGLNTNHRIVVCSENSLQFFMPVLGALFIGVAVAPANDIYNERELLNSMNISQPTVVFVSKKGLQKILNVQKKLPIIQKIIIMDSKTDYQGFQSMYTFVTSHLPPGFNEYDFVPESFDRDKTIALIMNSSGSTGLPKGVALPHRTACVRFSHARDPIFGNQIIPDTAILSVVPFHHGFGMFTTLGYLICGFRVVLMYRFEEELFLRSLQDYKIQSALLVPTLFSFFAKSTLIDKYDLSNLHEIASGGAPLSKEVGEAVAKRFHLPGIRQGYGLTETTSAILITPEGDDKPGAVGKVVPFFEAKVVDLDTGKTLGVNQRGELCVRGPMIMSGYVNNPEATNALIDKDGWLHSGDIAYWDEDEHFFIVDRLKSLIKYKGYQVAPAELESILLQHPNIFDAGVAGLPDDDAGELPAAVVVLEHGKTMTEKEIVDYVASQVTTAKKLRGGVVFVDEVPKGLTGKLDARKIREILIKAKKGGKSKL
Procedure, shortened: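 Purified P. pyralis luciferase (10nM final) with 10uM D-luciferin and 10uM ATP (Km levels) in 50mM Tris acetate pH 7.5, 10mM Mg acetate, 0.01% Tween-20, 0.05% BSA; qHTS 6-point titration, ~60 µM downward; luminescence read.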
Potency means the concentration at half of the fitted maximal effect; tags describe the fitted curve by direction and shape.

Row | Structure (SMILES) | Potency | activity change, negative = inhibition
1 | COc1ccc(S(=O)(=O)c2c(O)c3ccc(C(=O)NCc4ccccc4)cc3[nH]c2=O)cc1 | inconclusive: 19 µM [inhibitor, partial curve] | –
2 | Fc1ccc(N/N=C2/CCSc3sccc32)c(F)c1 | inconclusive: 21.3 µM [inhibitor, partial curve, poor fit] | –
3 | Cc1cc2c(c(=O)o1)C1O[C@](c3ccsc3)(Cc3cc(C#N)ccc31)O2 | inconclusive: 3.89 µM [inhibitor, partial curve, poor fit] | –
4 | O=C(/C=C/c1ccc(OCc2c(F)cccc2Cl)cc1)N1CCOCC1 | inconclusive: 23.9 µM [inhibitor, partial curve, poor fit] | –
5 | CCOc1ccc(CNC(=O)CCc2cn(Cc3ccccc3)c3ccccc23)cc1 | – | inactive: -3.27%
6 | CCOc1cccc(C(=O)Nc2ccc3[nH]ncc3c2)c1 | active: 5.36 µM | –
7 | O=C(O)c1ccc2nc(-c3ccccc3)c(-c3ccccc3)nc2c1 | inconclusive: 21.3 µM [inhibitor, single point] | –
8 | O=C(CCN1C(=O)/C(=C/c2ccc3c(c2)OCO3)SC1=S)Nc1ccc(C(=O)O)cc1 | active: 9.53 µM | –
9 | COc1cccc(CNC(=O)CSc2nnc(C)c3c(C)n(-c4ccccc4)nc23)c1OC | – | inactive: -4.34%
10 | O=C(CSc1ccc2ccccc2n1)Nc1ccc(N2CCOCC2)cc1 | inconclusive: 26.9 µM [inhibitor, single point] | –
11 | CCOC(=O)c1cccc(-n2c(C)nc3ccccc3c2=O)c1 | – | inactive: -1.23%
12 | O=S(=O)(c1ccc(F)cc1)c1nc(-c2ccco2)oc1Nc1ccccc1 | inconclusive: 26.9 µM [inhibitor, partial curve, poor fit] | –
13 | C/C(=N\NC(=O)CCc1c[nH]c2ccccc12)c1cccc([N+](=O)[O-])c1 | – | inactive: 0.374%
14 | COc1ccc(NC(C#N)c2ccc(OC)cc2)cc1 (stereo not drawn) | active: 3.01 µM | –
15 | CCN(CC)c1ccc(C=C2C(=O)OC3(CCCC3)OC2=O)cc1 | inconclusive: 23.9 µM [inhibitor, single point] | –
16 | Cc1ccc(OCc2cc(C(=O)NCc3cc(F)ccc3C)no2)cn1 | inconclusive: 23.9 µM [inhibitor, partial curve, poor fit] | –
17 | Cc1ncc(CO)c(/C=N/Nc2cccc(Cl)n2)c1O | inconclusive: 26.9 µM [inhibitor, single point] | –
18 | Cn1ncc2c(Nc3ccc(-c4ccccc4)cc3)ncnc21 | inconclusive: 15.1 µM [inhibitor, partial curve] | –
19 | N#Cc1ccccc1NC(=O)c1ccc(-c2ccccc2Cl)o1 | inconclusive: 2.39 µM [inhibitor, partial curve, poor fit] | –
20 | CCN1CCN(c2cc(-c3ccccc3)nc3cc(-c4cccc(F)c4)nn23)CC1 | – | inactive: 6.05%
21 | Cc1cc(-c2ccccc2)nc(N/N=C/c2ccc(O)cc2)n1 | active: 1.51 µM | –
22 | CC(C)NC(=O)NC(=O)COc1c(F)c(F)cc(F)c1F | – | inactive: 1.42%
23 | CCN1CCCC1CNC(=S)Nc1ccc(C(C)=O)cc1 (stereo not drawn) | – | inactive: 2.78%
24 | Cc1cc(C)c2nc(NC(=O)C3CSC4(C)CCC(=O)N34)sc2c1 (stereo not drawn) | inconclusive: 13.5 µM [inhibitor, partial curve, poor fit] | –
25 | Cc1ccc(Cl)cc1N1CCN(C(=O)c2ccc3nc(N4CCC(C)CC4)sc3c2)CC1 | inconclusive: 23.9 µM [inhibitor, partial curve] | –

Row | Structure (SMILES) | Potency | activity change, negative = inhibition
26 | Cc1cc(-c2ccc(C)c(S(=O)(=O)Nc3cccc(C#N)c3)c2)on1 | inconclusive: 19 µM [inhibitor, partial curve] | –
27 | CCOC(=O)c1sc(NC(=O)c2cccs2)nc1C | active: 2.39 µM | –
28 | O=C(COc1ccc(F)cc1)NCCc1nc2ccccc2[nH]1 | – | inactive: -5.15%
29 | CC(C)(c1ccccc1)c1ccc(OCc2ccc(C(=O)O)o2)cc1 | active: 26.9 µM | –
30 | Fc1cccc(Cl)c1Cn1nnc2c(N3CCC4(CC3)OCCO4)ncnc21 | inconclusive: 26.9 µM [inhibitor, single point] | –
31 | COc1cc(NC(=O)c2cccc(C)c2)c(OC)cc1NC(=O)CN1CCCCC1 | inconclusive: 37.9 µM [inhibitor, single point] | –
32 | O=C(/C=C/c1ccccc1Cl)NC1CCS(=O)(=O)C1 (stereo not drawn) | – | inactive: -2.09%
33 | CC(Oc1ccccc1)C(=O)N=Nc1c(O)[nH]c2ccc([N+](=O)[O-])cc12 (stereo not drawn) | inconclusive: 37.9 µM [inhibitor, partial curve, poor fit] | –
34 | Cc1sc(NC(=O)CS(=O)(=O)c2ccccc2)c(C(N)=O)c1C | inconclusive: 23.9 µM [inhibitor, single point] | –
35 | CCN(Cc1nc(-c2cccc(Cl)c2)no1)CC1CCCO1 (stereo not drawn) | inconclusive: 26.9 µM [inhibitor, partial curve, poor fit] | –
36 | CCc1ccc(C(=O)NC(Cc2c[nH]c3ccccc23)C(=O)OCC(=O)c2ccc(Br)cc2)cc1 (stereo not drawn) | inconclusive: 26.9 µM [inhibitor, partial curve] | –
37 | CC(C)(CNC(=O)CNC(=O)c1ccc(Cl)cc1Cl)N1CCOCC1 | – | inactive: -2.76%
38 | CCOC(=O)c1cnc2ccccc2c1Nc1cccc(OC)c1 | inconclusive: 30.1 µM [inhibitor, partial curve, poor fit] | –
39 | COc1ccc(NC(=O)Nc2ccccc2SC)cc1OC | active: 19 µM | –
40 | NNC(=O)c1ccc(COc2ccc3c(c2)CCC3)o1 | inconclusive: 26.9 µM [inhibitor, partial curve, poor fit] | –
41 | Fc1ccc(-c2nnc(SCc3cccnc3)o2)cc1 | inconclusive: 23.9 µM [inhibitor, single point] | –
42 | O=C(NC1CCCCCC1)C1c2ccccc2C(=O)N1Cc1ccccc1Cl (stereo not drawn) | – | inactive: -2.35%
43 | C/C(=N\NC(=O)c1ccccc1O)c1c(O)cc(C)oc1=O | active: 15.1 µM | –
44 | O=C(C(=O)N1CCCCCC1)c1c[nH]c2ccccc12 | – | inactive: -2.97%
45 | CCCOC(=O)c1ccc(-c2ccc(C=O)o2)cc1 | active: 13.5 µM | –
46 | O=C(COC(=O)Cc1n[nH]c(=O)c2ccccc12)Nc1cccc(C(F)(F)F)c1 | – | inactive: 3.12%
47 | CCN1C(=O)c2ccccc2S(=O)(=O)c2ccc(C(=O)NCc3ccccc3Cl)cc21 | – | inactive: 4.02%
48 | CCOC(=O)c1[nH]c(C)c(C(=O)Nc2ccc3c(c2)OCCO3)c1C | inconclusive: 30.1 µM [inhibitor, partial curve, poor fit] | –
49 | CC(C)(C)S(=O)(=O)c1cnc2c(-c3ccc(Cl)cc3)cnn2c1N | inconclusive: 4.26 µM [inhibitor, partial curve, poor fit] | –
50 | CCOC(=O)C1CCN(C(=O)CSc2n[nH]c(-c3ccc(F)cc3)n2)CC1 | – | inactive: -4.32%

Row | Structure (SMILES) | Potency | activity change, negative = inhibition
51 | COc1ccc(C(=O)Nc2cc(=O)[nH]c3ncnn23)cc1 | inconclusive: 37.9 µM [inhibitor, single point] | –
52 | CCN(CC)c1ccc(NC(=O)CCCCCN2C(=O)c3ccccc3C2=O)cc1 | inconclusive: 26.9 µM [inhibitor, partial curve, poor fit] | –
53 | Cc1ccc(C(=O)CNc2ccc(C)c(Cl)c2)cc1 | inconclusive: 3.01 µM [inhibitor, partial curve, poor fit] | –
54 | CC(=O)c1cccc(NC(=O)COc2ccccc2C(=O)c2cc(C#N)c(=O)n(C3CCCCC3)c2)c1 | – | inactive: -0.773%
55 | CCOc1cccc(OCCCn2c(-c3ccc(Br)cc3)nc3ccccc3c2=O)c1 | – | inactive: -7.31%
56 | COc1cccc(C(=O)CN2CCN(S(=O)(=O)c3cccc([N+](=O)[O-])c3)CC2)c1 | – | inactive: -0.363%
57 | Cc1ccn(C(=O)c2ccc(NC(=O)CC(C)C)cc2)n1 | inconclusive: 23.9 µM [inhibitor, partial curve] | –
58 | COc1cc(NC(=O)C/C(C)=N/NC(=O)C(=O)NC2CCCCC2)c(OC)cc1Cl | inconclusive: 23.9 µM [inhibitor, partial curve, poor fit] | –
59 | CCOc1ccc(CCNC(=O)c2ccc3c(c2)nc2n3CCOC2)cc1OCC | – | inactive: -0.775%
60 | CC(=O)/C=C(\C)N=Nc1c(O)[nH]c2ccccc12 | active: 13.5 µM | –
61 | CCCCOc1ccc(C2=NNC(=O)CC2)cc1 | inconclusive: 16.9 µM [inhibitor, partial curve] | –
62 | CC(C)OCCCNC(=O)CCCn1c(SCC(N)=O)nc2c(sc3ccccc32)c1=O | – | inactive: -0.712%
63 | COc1ccccc1N1CCN(C(=O)c2ccc3nc(-c4ccco4)c(-c4ccco4)nc3c2)CC1 | – | inactive: -15%
64 | COC(=O)CN(c1ccc(OC)cc1OC)S(=O)(=O)c1ccccc1[N+](=O)[O-] | inconclusive: 23.9 µM [inhibitor, partial curve, poor fit] | –
65 | Cc1ccc(C(=O)c2c3ccccc3[n+]([O-])n2CCC(=O)O)cc1 | inconclusive: 26.9 µM [inhibitor, partial curve, poor fit] | –
66 | Cc1ccc(Cl)cc1NC(=O)C1CCN(C(=O)c2cnn(-c3ccccc3)c2-n2cccc2)CC1 | – | inactive: 0.554%
67 | O=C(NNC(=S)Nc1ccccc1Cl)c1ccccc1 | active: 13.5 µM | –
68 | Cc1nc(-c2ccc(S(=O)(=O)N(Cc3ccccc3)C(C)C)cc2)co1 | inconclusive: 37.9 µM [inhibitor, partial curve, poor fit] | –
69 | CC1(C)Cc2c(sc(NC(=O)Nc3ccccc3)c2C(N)=O)CO1 | active: 12 µM | –
70 | O=C(OCc1csc(-c2ccccc2)n1)c1ccccc1O | active: 6.01 µM | –
71 | Cc1nc(-c2coc3cc(C)c(N=O)c(O)c3/c2=N\N)cs1 | inconclusive: 15.1 µM [inhibitor, partial curve, poor fit] | –
72 | COc1ccccc1NC(=O)CN1CCN(c2ccccc2F)CC1 | – | inactive: 1.45%
73 | O=C(COc1ccccc1C(=O)NCc1ccccn1)Nc1ccc(Br)cc1 | inconclusive: 23.9 µM [inhibitor, partial curve] | –
